# Test results as given in PubChem BioAssay AID485297 (National Center for Advancing Translational Sciences (NCATS), 2010).
# About 9,100 (2.8%) of roughly 320,000 compounds were called active. The shares of active, inactive and inconclusive entries below differ from those in the screen. The call rests on the fitted dose curve; in most records, active means well fitted activation curve with a large enough effect; inconclusive means small, poorly fitted or top-dose-only effect; inactive means no such curve, though single readings can be large or run the other way. No potency is given beside an inconclusive call; the fits are too rough.
# Experiment: qHTS Assay for Rab9 Promoter Activators; further: nearly all actives have a fitted effect of over 60% in size; on activation, negative = inhibition: % of control where 0% means no effect
# Conditions: Huh7 Rab9 promoter-luciferase reporter, luminescence, 24 h; series mostly up to 9.22 µM; activation, negative = inhibition: at the top concentration
# Outline: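 Cells were plated at 1500 per well in reduced-serum medium with 10% FBS and left 2 h. Compound in DMSO was then added for 24 h at 37 °C. Reporter signal was read by luminescence after 10 min with luciferase detection reagent.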
# Potency means the concentration at half of the fitted maximal effect; tags describe the fitted curve by direction and shape.
SMILES,Potency,"activation, negative = inhibition"
CCOC(=O)c1cccc(Nc2nc(C)cc(C)n2)c1,active: 4470 nM,–
C/C(=N/NC(=O)c1cccs1)c1ccco1,"inconclusive [activator, single point]",–
CCOc1ccc(Nc2oc(-c3cccc(Cl)c3)nc2C#N)cc1,"inconclusive [activator, single point]",–
Cc1ccc(Nc2nc(COC(=O)COc3ccc(C=O)cc3)cs2)cc1,"inconclusive [activator, partial curve]",–
C=CCn1c(-c2ccc(N)cc2)nc2ccccc21,"inconclusive [activator, single point]",–
O=C(OCC(F)(F)F)c1cccc(COc2ccc3ccccc3c2)c1,"inconclusive [activator, full curve, poor fit]",–
COc1cc([N+](=O)[O-])ccc1NC(=O)Nc1ccc2c(c1)OCCO2,"inconclusive [activator, single point]",–
Nc1nc2c(nc(Br)n2C2OC3COP(=O)(O)O[C@@H]3C2O)c(=O)[nH]1 (stereo partly specified),–,inactive: 1.91% [at 46.1 µM]
COc1ccccc1NC(=O)c1ccccc1NC(=O)c1cc(Cl)ccc1NC(=O)c1ccco1,–,inactive: 3.48%
COc1cc(/C=N/Nc2nn3cnnc3c3ccccc23)cc(OC)c1OC,"inconclusive [activator, partial curve]",–
Fc1cccc(CSc2ccc(-c3ccco3)nn2)c1,"inconclusive [activator, single point]",–
NC(=O)c1c(NC(=O)c2cc3ccccc3o2)sc2c1CCC2,active: 224 nM,–
Cc1ccc(CNS(=O)(=O)c2c(C)[nH]c(C)c2C(=O)N2CCCCC2)o1,–,inactive: -0.084%
COc1cc2ccccc2cc1C(=O)NC(=S)Nc1ccc(C(=O)O)cc1,"inconclusive [activator, partial curve]",–
O=c1cc(NCCc2ccccc2)c2ccccc2o1,"inconclusive [activator, partial curve]",–
Cn1cccc1C(=O)C(=O)Nc1ccccc1C(F)(F)F,"inconclusive [activator, single point]",–
Cc1cc(NCc2ccccn2)n2ncc(-c3ccc(Cl)cc3)c2n1,"inconclusive [activator, partial curve]",–
Cc1ccc(/C=C/c2nnc(-c3cccs3)o2)cc1,active: 891 nM,–
COc1ccc(-c2cc(C(=O)N3CCN(c4ccccc4)CC3)no2)cc1,"inconclusive [activator, partial curve]",–
CCOc1cccc(NC(=O)/C(C#N)=C\c2cccnc2)c1,–,inactive: -0.983%
COc1ccc2nc(C)cc(SCC(=O)NNC(=O)COc3ccccc3)c2c1,–,inactive: -2.86%

SMILES,Potency,"activation, negative = inhibition"
CCOC(=O)N1CCN(c2ccc(S(=O)(=O)N(Cc3ccccc3)Cc3ccccc3)cn2)CC1,–,inactive: -31.5%
COc1cccc(NC(=O)C(=O)N2CCOCC2)c1,"inconclusive [activator, partial curve]",–
Cc1ccc(NC(=O)c2ccc3c(c2)OCO3)cc1Cl,active: 794 nM,–
Cc1cc(C)nc(CCNC(=O)c2cc(COc3ccccc3)on2)n1,"inconclusive [activator, partial curve]",–
O=C(CSc1ccccn1)N1CCc2ccccc21,active: 1120 nM,–
COc1ccc(NC(=O)c2cc3sccc3n2Cc2ccc(F)cc2)cc1OC,"inconclusive [activator, partial curve]",–
Clc1ccccc1/C=N/Nc1cc(N2CCOCC2)ncn1,"inconclusive [activator, single point]",–
CC1CCN(c2ccc(NC(=O)c3cccnc3)cc2)CC1,"inconclusive [activator, partial curve]",–
Cc1ccc(-c2nnc(Nc3ccc4c(c3)OCO4)c3ccccc23)cc1S(N)(=O)=O,–,inactive: -1.39%
Cc1ccc(S(=O)(=O)NC2=NCN(C(C)C)CN2)cc1,–,inactive: 0.827%
O=C(/C=C/c1ccc2c(c1)OCO2)Nc1nncs1,active: 2000 nM,–
CCOc1ccc(NC(=O)c2cnsn2)cc1,active: 562 nM,–
O=C(NNC(=S)Nc1ccc(Cl)cc1)c1ccccc1OC(F)F,–,inactive: 3.1%
COc1ccc(C(=O)O/N=C(\N)c2ccccc2)cc1,active: 1410 nM,–
O=C(Oc1ccc2c(c1)OCC2=O)c1ccccc1,–,inactive: 0.499%
O=S(=O)(c1ccc(F)cc1)N1CCN(c2nc(-c3ccc(F)cc3)cs2)CC1,–,inactive: -3.41%
Cc1ccc2nc(N3CCOCC3)c(C=O)cc2c1,–,inactive: 12.7%
O=C(COC(=O)c1cccnc1Cl)NCc1cccs1,–,inactive: -5.32%
Cc1ccc2nc(N(CCCN(C)C)C(=O)c3ccc(S(=O)(=O)N(C)C)cc3)sc2c1,"inconclusive [activator, single point]",–
COc1cccc(NC(=O)CN(C)C(C)C(=O)NC(=O)NC2CCCCC2)c1 (stereo unspecified),–,inactive: -2.42%
Cc1ccccc1/C=N/Nc1nc2ccccc2[nH]1,active: 3550 nM,–

SMILES,Potency,"activation, negative = inhibition"
COc1ccc(NCCc2ccccn2)cc1,"inconclusive [activator, partial curve]",–
O=C(CC(Nc1ccc(F)cc1)C(=O)OCC(=O)c1cccs1)c1ccccc1 (stereo unspecified),active: 4470 nM,–
O=C(COC(=O)c1ccco1)Nc1cccc(Br)c1,–,inactive: 4.37%
Cc1ccc(N=Nc2c(C)[nH]n(C(N)=S)c2=O)cc1C,active: 3550 nM,–
COc1cccc(/C=N\Nc2nncc(-c3ccccc3)n2)c1,"inconclusive [activator, partial curve]",–
Fc1ccc(-c2nc3nc4ccccc4nc3n2Cc2ccco2)cc1,"inconclusive [activator, partial curve]",–
CC(=O)c1c(CC(=O)O)[nH]n(-c2nc3ccccc3s2)c1=O,"inconclusive [activator, partial curve]",–
COc1ccc(NC(=O)c2ccc3c(c2)OCO3)cc1[N+](=O)[O-],active: 3160 nM,–
O=C(N/N=C/c1ccc2c(c1)OCO2)C(O)c1ccccc1 (stereo unspecified),"inconclusive [activator, single point]",–
CCc1c(C)sc(NC(=O)c2cccs2)c1C#N,"inconclusive [activator, single point]",–
OC1(C(F)(F)F)CC(c2ccc3ccccc3c2)=NO1 (stereo unspecified),–,inactive: -1.67%
Cc1[nH]ccc(=O)c1Oc1ncc(C(F)(F)F)cc1Cl,–,inactive: -3.32%
O=C(OCC(=O)c1c[nH]c2ccccc12)c1cccc(O)c1,"inconclusive [activator, single point]",–
O=C(COC(=O)CNS(=O)(=O)c1cccc(F)c1)NCCc1ccccc1,–,inactive: 0.332%
CN(C)c1ccc(N=Cc2nc(-c3ccccc3)oc2OC(=O)c2ccccc2)cc1,"inconclusive [activator, single point]",–
O=[N+]([O-])c1cccnc1Oc1ccc(OCc2ccccc2)cc1,"inconclusive [activator, single point]",–
Cc1ccc(NC(=O)Nc2ccccc2)c(Br)c1,active: 1780 nM,–
O=S(=O)(Nc1ccc(-c2nc3cccnc3s2)cc1)c1cc(F)ccc1F,"inconclusive [activator, single point]",–
COc1ccccc1-c1cc(C(=O)N2CCCC2)no1,active: 2000 nM,–
COc1cc2ccccc2cc1C(=O)Nc1ccc(Br)cn1,active: 1780 nM,–
CCOC(=O)c1c(C)[nH]c(C(=O)OCc2ccccc2F)c1C,active: 1580 nM,–

SMILES,Potency,"activation, negative = inhibition"
O=C(NC(=S)Nc1ccccc1F)c1ccc(Br)o1,"inconclusive [activator, single point]",–
NC(=O)c1nsnc1-c1ccccc1O,"inconclusive [activator, single point]",–
CCc1cc(C(=O)NNC(=S)Nc2ccccc2C)cs1,active: 2820 nM,–
COc1nc2ccc(C)cc2cc1-c1noc(-c2cccnc2)n1,–,inactive: 1.36%
Cc1cc(C(=O)CSc2n[nH]c(N)n2)c(C)n1-c1cc(F)ccc1F,"inconclusive [activator, partial curve]",–
Brc1ccc(-c2csc(N3CCCCC3)n2)cc1,–,inactive: 5.38%
COc1ccc(C2(C(=O)c3ccccc3)C(=O)c3ccccc3C2=O)cc1,"inconclusive [activator, single point]",–
CCNC(=S)N/N=C/c1sc(N2CCCCC2)nc1-c1cccs1,"inconclusive [activator, single point]",–
COc1ccc(Nc2cc(C(=O)N3CCc4ccccc4C3)c3ccccc3n2)c(OC)c1,–,inactive: -1.45%
O=C(CCNc1n[nH]c(=O)[nH]c1=O)N/N=C/c1ccc(C(F)(F)F)cc1,–,inactive: -7.29%
COc1ccc2c(C(=O)c3ccc(C)cc3)n(Cc3ccc(C(N)=O)cc3)[n+]([O-])c2c1,"inconclusive [activator, partial curve]",–
Cc1ccc(CN/C=C/C(=O)c2ccc(Br)cc2)cc1,–,inactive: 20.3%
COc1ccc(OC)c(S(=O)(=O)N2Cc3ccccc3CC2C(=O)Nc2nccs2)c1 (stereo unspecified),"inconclusive [activator, single point]",–
Cc1ccc(S(=O)(=O)NCC(=O)OCC(=O)NCCc2ccccc2)cc1,–,inactive: -1.3%
COc1cc2c(cc1NC(=O)C(C)Sc1cccc[n+]1[O-])oc1ccccc12 (stereo unspecified),"inconclusive [activator, partial curve]",–
Nc1ccc(SCc2nc3cccc4c3n2CCC4)cc1,"inconclusive [activator, partial curve]",–
COc1ccccc1/C=C\C=N\NC(=O)c1ccco1,"inconclusive [activator, partial curve]",–
COc1ccc(C2(c3ccc(OC)cc3)NC(=O)N(CC(=O)N(C)c3ccccc3)C2=O)cc1,active: 2240 nM,–
